We go through 130 sequences from a collection of fitness landscapes (doi:10.1038/s41467-024-54723-y).

Over roughly 18,000 sequences, “TetR repression strength (sort-seq, GFP reporter)” has its median near 0.23; the highest 2% begin near 0.68. This is one part of the list.

The assay addresses TetR (class B, Tn10) (UniProt P04483). Put plainly: TetR repression strength (sort-seq, GFP reporter) (relative to tetO2 = 1); higher = stronger repression. As to conditions: E. coli. In a few lines: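 E. coli SIG10-MAX carried a low-copy plasmid library with eight randomized operator positions between a constitutive promoter and sfGFP, with TetR constitutively expressed. Cells grew 5 h at 37 °C in LB with 50 µg/mL chloramphenicol, then 10^6 cells were FACS-sorted into 13 fluorescence bins, each Illumina-sequenced. Repression strength is the top bin index plus one minus the read-weighted mean bin, divided by the wild-type operator value. Three independent transformations; variants with ≥30 reads in all replicates and CV ≤0.5 were averaged.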
Chain of UniProt P04483 (P04483 whole entry): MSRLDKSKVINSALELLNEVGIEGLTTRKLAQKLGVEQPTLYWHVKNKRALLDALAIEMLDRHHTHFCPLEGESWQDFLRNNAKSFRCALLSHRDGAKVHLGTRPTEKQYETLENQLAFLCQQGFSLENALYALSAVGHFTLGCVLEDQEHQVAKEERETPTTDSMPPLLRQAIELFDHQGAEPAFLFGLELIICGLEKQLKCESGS
TCCCGCGTAGTAGGCGAGA registered a TetR repression strength of 0.257.

TCCCTCTTAGTCCCCGAGA returned a TetR repression strength of 0.216.

TCCCTCGGAGTGAGGGAGA gave a TetR repression strength of 0.0471.

Sequence TCCCCACAAGTAAGCGAGA gave a TetR repression strength of 0.125.

Take TCCCAGCTAGTCTCGGAGA: the TetR repression strength came to 0.251.

Consider TCCCACGGAGTGGGAGAGA, for which the TetR repression strength amounted to 0.0671.

Sequence TCCCCTGTAGTGGTTGAGA showed a TetR repression strength of 0.181.

On to TCCCAGTCAGTTTTAGAGA, for which the TetR repression strength was 0.189.

For the sequence TCCCCCGGAGTCTCGGAGA, the TetR repression strength was found to be 0.122.

Regarding TCCCCGTTAGTGCGTGAGA, the TetR repression strength stood at 0.108.

On to TCCCATGGAGTGGCTGAGA, for which the TetR repression strength was 0.3.

Turning to TCCCTGGGAGTATGCGAGA, the TetR repression strength was 0.183.

As to TCCCGAGGAGTTAGGGAGA, the TetR repression strength was determined as 0.301.

On to TCCCGGGTAGTGCGGGAGA, for which the TetR repression strength is 0.0889.

On to TCCCTCAAAGTTATTGAGA, for which the TetR repression strength was 0.182.

The sequence TCCCCAGTAGTATGGGAGA registered a TetR repression strength of 0.234.

TCCCCGCAAGTAGACGAGA displayed a TetR repression strength of 0.369.

TCCCTAGGAGTTGCAGAGA came in with a TetR repression strength of 0.14.

With TCCCCAGGAGTTGCAGAGA, the TetR repression strength came out at 0.295.

Consider TCCCCGTCAGTAGTGGAGA, for which the TetR repression strength was found to be 0.216.

Sequence TCCCTCTGAGTGGGGGAGA came in with a TetR repression strength of 0.181.

As for TCCCAGCGAGTGGAAGAGA, the TetR repression strength amounted to 0.208.

The sequence TCCCGCTGAGTGATGGAGA gave a TetR repression strength of 0.23.

Consider TCCCATGGAGTATTCGAGA, for which the TetR repression strength stood at 0.185.

In turn, TCCCATTCAGTGATTGAGA registered a TetR repression strength of 0.643.

Regarding TCCCTTTCAGTTGCTGAGA, the TetR repression strength turned out to be 0.283.

In turn, TCCCATTTAGTCGGGGAGA gave a TetR repression strength of 0.164.

TCCCATAGAGTGTACGAGA displayed a TetR repression strength of 0.159.

For TCCCTTATAGTTCAGGAGA, the TetR repression strength turned out to be 0.184.

Turning to TCCCAGTCAGTAGCCGAGA, the TetR repression strength came out at 0.0963.

In the case of TCCCCTAAAGTAAAGGAGA, the TetR repression strength amounted to 0.237.

Sequence TCCCCTGCAGTCCGCGAGA had a TetR repression strength of 0.506.

In the case of TCCCATATAGTCTGGGAGA, the TetR repression strength turned out to be 0.201.

In the case of TCCCACAAAGTTTGCGAGA, the TetR repression strength worked out at 0.144.

With TCCCCCTAAGTGATTGAGA, the TetR repression strength was found to be 0.228.

As for TCCCTATCAGTTATCGAGA, the TetR repression strength worked out at 0.859.

As to TCCCGATCAGTTGCGGAGA, the TetR repression strength was 0.155.

Take TCCCGGAAAGTTCCGGAGA: the TetR repression strength came out at 0.0749.

As to TCCCCTTGAGTTAGCGAGA, the TetR repression strength is 0.2.

On to TCCCGGGGAGTCAGTGAGA, for which the TetR repression strength came to 0.0491.

TCCCGGAAAGTTATGGAGA returned a TetR repression strength of 0.296.

TCCCCAGAAGTGTGGGAGA gave a TetR repression strength of 0.0963.

The sequence TCCCGGTTAGTTCGCGAGA came in with a TetR repression strength of 0.22.

For the sequence TCCCGCGAAGTATTAGAGA, the TetR repression strength amounted to 0.291.

On to TCCCGAAGAGTGCCTGAGA, for which the TetR repression strength is 0.517.

Consider TCCCCGTCAGTGAGAGAGA, for which the TetR repression strength came to 0.314.

TCCCTCGGAGTGCCCGAGA: the TetR repression strength came to 0.215.

TCCCAGGTAGTTCTAGAGA gave a TetR repression strength of 0.337.

Sequence TCCCGTTAAGTTTATGAGA yielded a TetR repression strength of 0.207.

As to TCCCAGCGAGTGTGGGAGA, the TetR repression strength was 0.287.

On to TCCCCTCTAGTAAACGAGA, for which the TetR repression strength is 0.546.

TCCCGAGTAGTAAGGGAGA gave a TetR repression strength of 0.198.

TCCCTCCCAGTAGAGGAGA: the TetR repression strength turned out to be 0.177.

TCCCATCAAGTGCAGGAGA: the TetR repression strength is 0.293.

On to TCCCGTAAAGTCTGGGAGA, for which the TetR repression strength came out at 0.363.

As for TCCCTTGGAGTTGGAGAGA, the TetR repression strength came out at 0.173.

As to TCCCAGGGAGTTATGGAGA, the TetR repression strength is 0.234.

In turn, TCCCGTTAAGTCTGAGAGA registered a TetR repression strength of 0.301.

Take TCCCCTTTAGTGTTGGAGA: the TetR repression strength was found to be 0.405.

Consider TCCCTTGGAGTGCCCGAGA, for which the TetR repression strength turned out to be 0.23.

For TCCCATCAAGTACTTGAGA, the TetR repression strength stood at 0.307.

TCCCGATGAGTCGAGGAGA: the TetR repression strength turned out to be 0.236.

The sequence TCCCTAGAAGTGGGGGAGA came in with a TetR repression strength of 0.188.

TCCCGGATAGTGGTGGAGA showed a TetR repression strength of 0.268.

The sequence TCCCCGCCAGTTCTAGAGA gave a TetR repression strength of 0.276.

Sequence TCCCATGAAGTGGAGGAGA showed a TetR repression strength of 0.311.

Take TCCCTCGAAGTATATGAGA: the TetR repression strength came to 0.347.

For TCCCATTCAGTTGTTGAGA, the TetR repression strength was 0.274.

The sequence TCCCGCTTAGTGACCGAGA came in with a TetR repression strength of 0.222.

For TCCCTGGCAGTTGAAGAGA, the TetR repression strength was found to be 0.255.

Take TCCCTGCTAGTGGTGGAGA: the TetR repression strength came to 0.404.

For TCCCATGTAGTGGACGAGA, the TetR repression strength worked out at 0.325.

Turning to TCCCCTACAGTTCATGAGA, the TetR repression strength worked out at 0.189.

The sequence TCCCCATGAGTCGTGGAGA returned a TetR repression strength of 0.0672.

As to TCCCGTGGAGTGGTCGAGA, the TetR repression strength is 0.195.

Consider TCCCCTCTAGTCGTTGAGA, for which the TetR repression strength was found to be 0.213.

TCCCGAAAAGTACGGGAGA: the TetR repression strength worked out at 0.268.

Turning to TCCCACCTAGTCGAAGAGA, the TetR repression strength was determined as 0.292.

TCCCAAGTAGTCGCCGAGA showed a TetR repression strength of 0.193.

The sequence TCCCTTAAAGTCGTGGAGA showed a TetR repression strength of 0.112.

With TCCCAATCAGTTTATGAGA, the TetR repression strength was 0.266.

TCCCAGCAAGTCTTGGAGA returned a TetR repression strength of 0.251.

Sequence TCCCCCGGAGTCATGGAGA displayed a TetR repression strength of 0.193.

In turn, TCCCGTTCAGTGTATGAGA came in with a TetR repression strength of 0.285.

Turning to TCCCGCAGAGTTGCCGAGA, the TetR repression strength came to 0.0842.

In turn, TCCCTGGAAGTATCAGAGA gave a TetR repression strength of 0.165.

For the sequence TCCCTGATAGTACGCGAGA, the TetR repression strength was found to be 0.267.

Sequence TCCCGGCAAGTGGTGGAGA showed a TetR repression strength of 0.289.

For TCCCACGAAGTGGCCGAGA, the TetR repression strength amounted to 0.133.

Consider TCCCATAAAGTGCTCGAGA, for which the TetR repression strength is 0.225.

For TCCCGGGGAGTATGAGAGA, the TetR repression strength worked out at 0.228.

TCCCGGGGAGTTGAAGAGA yielded a TetR repression strength of 0.154.

TCCCGGAAAGTGGTAGAGA showed a TetR repression strength of 0.0957.

Turning to TCCCCGCAAGTGCACGAGA, the TetR repression strength is 0.152.

On to TCCCTTATAGTCGTGGAGA, for which the TetR repression strength amounted to 0.162.

Sequence TCCCGAAGAGTGATAGAGA registered a TetR repression strength of 0.499.

The sequence TCCCCCATAGTCAGGGAGA showed a TetR repression strength of 0.312.

As to TCCCGGTTAGTCGCGGAGA, the TetR repression strength was 0.262.

In the case of TCCCCACCAGTTGTCGAGA, the TetR repression strength is 0.213.

Consider TCCCTGCCAGTATGCGAGA, for which the TetR repression strength was found to be 0.247.

In turn, TCCCACACAGTTGGTGAGA displayed a TetR repression strength of 0.00196.

On to TCCCAGGTAGTACCCGAGA, for which the TetR repression strength turned out to be 0.0415.

TCCCGGAAAGTATAAGAGA gave a TetR repression strength of 0.184.

Consider TCCCTACTAGTAGATGAGA, for which the TetR repression strength turned out to be 0.317.

Consider TCCCTTGAAGTATCGGAGA, for which the TetR repression strength came to 0.146.

Take TCCCTGTGAGTACTCGAGA: the TetR repression strength came to 0.183.

As for TCCCGTTCAGTAAGGGAGA, the TetR repression strength came out at 0.124.

For TCCCTCTGAGTATCTGAGA, the TetR repression strength was determined as 0.311.

Consider TCCCATCCAGTGGCGGAGA, for which the TetR repression strength is 0.348.

Sequence TCCCGGGGAGTTAAGGAGA showed a TetR repression strength of 0.00806.

The sequence TCCCGTATAGTTACGGAGA gave a TetR repression strength of 0.0141.

The sequence TCCCGCAAAGTAGAGGAGA gave a TetR repression strength of 0.248.

For the sequence TCCCAATAAGTCGGTGAGA, the TetR repression strength was found to be 0.279.

For the sequence TCCCTTCGAGTAATCGAGA, the TetR repression strength was 0.34.

The sequence TCCCGTCAAGTGGAAGAGA showed a TetR repression strength of 0.239.

For TCCCAGGAAGTGATAGAGA, the TetR repression strength stood at 0.373.

Sequence TCCCAGAAAGTCAACGAGA yielded a TetR repression strength of 0.478.

As to TCCCTGGTAGTCACGGAGA, the TetR repression strength amounted to 0.224.

As for TCCCGGGTAGTATCGGAGA, the TetR repression strength came out at 0.108.

Consider TCCCATGGAGTTAATGAGA, for which the TetR repression strength is 0.251.

Turning to TCCCGGTCAGTGGGAGAGA, the TetR repression strength worked out at 0.233.

TCCCAGTCAGTTCTGGAGA displayed a TetR repression strength of 0.329.

Sequence TCCCTTCAAGTACAAGAGA came in with a TetR repression strength of 0.33.

For TCCCTATAAGTTACTGAGA, the TetR repression strength was found to be 0.711.

For the sequence TCCCGGAAAGTGGAAGAGA, the TetR repression strength was 0.311.

With TCCCCCGGAGTTGACGAGA, the TetR repression strength stood at 0.207.

On to TCCCTTCAAGTGGACGAGA, for which the TetR repression strength stood at 0.23.

TCCCTAGGAGTAGTAGAGA returned a TetR repression strength of 0.298.

TCCCGGACAGTTTGGGAGA returned a TetR repression strength of 0.473.

TCCCATCGAGTTTCTGAGA yielded a TetR repression strength of 0.207.
